Paper PMC7612376, “Structural basis of meiotic chromosome synaptic elongation through hierarchical fibrous assembly of SYCE2-TEX12” (Nature structural & molecular biology, 2021)
Substitutions are numbered along the chain they refer to. Numbers in names are those of the source. These are yes or no findings as the source states them, for the method shown. Some entries that bind do so weakly or less than the wild type. For some of these results: Tags and fused reporters may be left off the sequences shown.

Columns and labels:
[1] = target: T1, SYCE2 core (amino-acids 57-165) (human, UniProt Q6PIF2 57-165); assay: crystal structure; SYCE2-TEX12 core ΔCtip 2:2 complex, 33 mg/ml, 35 % MPD, 20°C; space group P21; PDB 6R17; both purified
T1 construct: SYCE2, human, core, residues 57-165; also called SYCE2 structural core; source: E. coli BL21 (DE3), co-expressed with TEX12, purified (Ni-NTA, amylose, ion exchange, SEC); not shown: MBP, N-terminal, cleaved
T1 sequence (looked up): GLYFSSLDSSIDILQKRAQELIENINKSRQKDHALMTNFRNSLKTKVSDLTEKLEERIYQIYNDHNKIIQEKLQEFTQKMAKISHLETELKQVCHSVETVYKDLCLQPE

[2] = target: T1, SYCE2 core (amino-acids 57-165); assay: crystal structure; SYCE2-TEX12 core ΔCtip 4:4 assembly, 33 mg/ml, 0.1 M sodium acetate pH 4.0, 65 % MPD, 20°C; space group P21212, 2:2 heterotetramer in the asymmetric unit; PDB 6YQF; both purified
[3] = target: T2, SYCE2 core ΔS2C (amino-acids 57-154) (human, UniProt Q6PIF2 57-154); assay: SEC-SAXS; co-purified complexes at >5 mg/ml on Superdex 200 Increase 10/300 GL in 20 mM Tris pH 8.0, 150 mM KCl; both purified
T2 construct: SYCE2, human, ΔS2C, residues 57-154; source: E. coli BL21 (DE3), co-expressed with TEX12, purified (Ni-NTA, amylose, ion exchange, SEC); not shown: MBP, N-terminal, cleaved
T2 sequence (looked up): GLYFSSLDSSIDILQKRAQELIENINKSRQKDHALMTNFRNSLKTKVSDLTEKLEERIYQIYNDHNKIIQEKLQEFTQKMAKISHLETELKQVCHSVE

[4] = target: T1, SYCE2 core (amino-acids 57-165); assay: as above
[5] = target: T3, SYCE2-TEX12 core wild-type, 2:2 building block (human) (UniProt Q6PIF2+Q9BXU0); assay: negative-stain electron microscopy; co-purified complexes at 0.005-3 mg/ml on carbon-coated grids, 2% uranyl acetate; fibres detected and measured by image analysis; both purified
[6] = target: T3, SYCE2-TEX12 core wild-type, 2:2 building block (human); assay: SEC-SAXS; co-purified complexes at >5 mg/ml on Superdex 200 Increase 10/300 GL in 20 mM Tris pH 8.0, 150 mM KCl; both purified
[7] = target: SYCE2-TEX12 full-length wild-type, 2:2 building block (human) (UniProt Q6PIF2+Q9BXU0); assay: negative-stain electron microscopy; co-purified complexes at 0.005-3 mg/ml on carbon-coated grids, 2% uranyl acetate; fibres detected and measured by image analysis; both purified
[8] = target: SYCE2-TEX12 full-length FFV (TEX12 F102A F109A V116A), 2:2 building block (human) (UniProt Q6PIF2+Q9BXU0); assay: as above
[9] = target: T4, SYCE2-TEX12 core LFIL (TEX12 L110E F114E I117E L121E) 2:2 complex (human) (UniProt Q6PIF2+Q9BXU0); assay: as above
[10] = target: T4, SYCE2-TEX12 core LFIL (TEX12 L110E F114E I117E L121E) 2:2 complex (human); assay: SEC-MALS; co-purified complexes at >1 mg/ml on Superdex 200 Increase 10/300 GL in 20 mM Tris pH 8.0, 150 mM KCl, 2 mM DTT; in Fig. 1 core at 200 uM and full-length at 100 uM (4 mg/ml); both purified
[11] = target: T4, SYCE2-TEX12 core LFIL (TEX12 L110E F114E I117E L121E) 2:2 complex (human); assay: SEC-SAXS; co-purified complexes at >5 mg/ml on Superdex 200 Increase 10/300 GL in 20 mM Tris pH 8.0, 150 mM KCl; both purified
[12] = target: T5, SYCE2-TEX12 full-length LFIL (TEX12 L110E F114E I117E L121E) 2:2 complex (human) (UniProt Q6PIF2+Q9BXU0); assay: negative-stain electron microscopy; co-purified complexes at 0.005-3 mg/ml on carbon-coated grids, 2% uranyl acetate; fibres detected and measured by image analysis; both purified
[13] = target: T5, SYCE2-TEX12 full-length LFIL (TEX12 L110E F114E I117E L121E) 2:2 complex (human); assay: SEC-MALS; co-purified complexes at >1 mg/ml on Superdex 200 Increase 10/300 GL in 20 mM Tris pH 8.0, 150 mM KCl, 2 mM DTT; in Fig. 1 core at 200 uM and full-length at 100 uM (4 mg/ml); both purified
[14] = target: SYCE2-TEX12 core ΔS2C 2:2 complex (human) (UniProt Q6PIF2+Q9BXU0); assay: as above
[15] = target: SYCE2-TEX12 core V149E V153E V156E L160E 2:2 complex (human) (UniProt Q6PIF2+Q9BXU0); assay: as above
[16] = target: SYCE2-TEX12 core ΔS2C MBP-fusion 2:2 complex (human) (UniProt Q6PIF2+Q9BXU0); assay: as above

B1: TEX12 core ΔCtip (amino-acids 49-113) (domain or fragment, human, UniProt Q9BXU0 49-113, looked up)
chain: KDEALEKDLNDVSKEINLMLSTYAKLLSERAAVDASYIDEIDELFKEANAIENFLIQKREFLRQR
notes: TEX12, human, core ΔCtip, residues 49-113; source: E. coli BL21 (DE3), co-expressed with SYCE2, purified (Ni-NTA, amylose, ion exchange, SEC); not shown: His6, N-terminal, cleaved
In the case of B1, the binding [1] is reported as “binds”, the binding [2] is reported as “binds” and the binding [3] is reported as “binds”. For the same binder, the binding [4] was “binds”.

B2: TEX12 core (amino-acids 49-123) (domain or fragment, human, UniProt Q9BXU0 49-123, looked up)
chain: KDEALEKDLNDVSKEINLMLSTYAKLLSERAAVDASYIDEIDELFKEANAIENFLIQKREFLRQRFTVIANTLHR
notes: TEX12, human, core, residues 49-123; also called TEX12 structural core; source: E. coli BL21 (DE3), co-expressed with SYCE2, purified (Ni-NTA, amylose, ion exchange, SEC); not shown: His6, N-terminal, cleaved
For B2, the binding [4] was “binds”.

B3: TEX12 core F102A F109A V116A (domain or fragment, human, UniProt Q9BXU0 49-123, looked up)
chain: B2 chain with F54A, F61A, V68A
notes: TEX12, human, core, residues 49-123, with F102A, F109A and V116A; also called FFV (core); source: E. coli BL21 (DE3), co-expressed with SYCE2, purified (Ni-NTA, amylose, ion exchange, SEC); not shown: His6, N-terminal, cleaved
For B3, the binding [4] was “binds”.

B4: TEX12 core L110E F114E I117E L121E (domain or fragment, human, UniProt Q9BXU0 49-123, looked up)
chain: B2 chain with L62E, F66E, I69E, L73E
notes: TEX12, human, core, residues 49-123, with L110E, F114E, I117E and L121E; also called LFIL (core); source: E. coli BL21 (DE3), co-expressed with SYCE2, purified (Ni-NTA, amylose, ion exchange, SEC); not shown: His6, N-terminal, cleaved
For B4, the binding [4] was “binds”.

B5: SYCE2-TEX12 core wild-type, 2:2 building block (complex, human)
chain 1: T1 sequence (looked up)
chain 2: B2 chain
notes: SYCE2, human, core, residues 57-165; TEX12, human, core, residues 49-123; in solution it is found as 4:4 complex and larger assemblies, which are the rows of this molecule with itself; also called core complex; wild-type core; source: E. coli BL21 (DE3), co-expressed, purified (Ni-NTA, amylose, ion exchange, SEC); not shown: MBP, N-terminal, cleaved; His6, N-terminal, cleaved; copies: 2 + 2
For B5, the binding [5] was “binds” and the binding [6] was “binds”.

B6: SYCE2-TEX12 full-length wild-type, 2:2 building block (complex, human)
chain 1: MERQGVDVPHVKCKDQEPQPLGESKEHPRWEENCEEEAGGGPASASCQLTVLEGKSGLYFSSLDSSIDILQKRAQELIENINKSRQKDHALMTNFRNSLKTKVSDLTEKLEERIYQIYNDHNKIIQEKLQEFTQKMAKISHLETELKQVCHSVETVYKDLCLQPEQSLRLRWGPDHSRGKSPPRPGNSQPPDVFVSSVAETTSQATASEVQTNRDGEC
chain 2: MMANHLVKPDNRNCKRPRELESPVPDSPQLSSLGKSDSSFSEISGLFYKDEALEKDLNDVSKEINLMLSTYAKLLSERAAVDASYIDEIDELFKEANAIENFLIQKREFLRQRFTVIANTLHR
notes: SYCE2, human, full-length, residues 1-218; TEX12, human, full-length, residues 1-123; m2 + m9; also called full-length SYCE2-TEX12; source: E. coli BL21 (DE3), co-expressed, purified (Ni-NTA, amylose, ion exchange, SEC); not shown: MBP, N-terminal, cleaved; His6, N-terminal, cleaved; copies: 2 + 2
B6 was tested, and the binding [7] was “binds”.

B7: SYCE2-TEX12 full-length FFV (TEX12 F102A F109A V116A), 2:2 building block (complex, human)
chain 1: B6 chain 1
chain 2: B6 chain 2 with F102A, F109A, V116A
notes: SYCE2, human, full-length, residues 1-218; TEX12, human, full-length, residues 1-123, with F102A, F109A and V116A; m2 + m14; source: E. coli BL21 (DE3), co-expressed, purified (Ni-NTA, amylose, ion exchange, SEC); not shown: MBP, N-terminal, cleaved; His6, N-terminal, cleaved; copies: 2 + 2
With B7 the binding [8] was “binds weakly”.

B8: SYCE2-TEX12 core LFIL (TEX12 L110E F114E I117E L121E) 2:2 complex (complex, UniProt Q6PIF2 57-165; Q9BXU0 49-123)
chain 1: T1 sequence (looked up)
chain 2: B2 chain with L62E, F66E, I69E, L73E
B8 was tested, and the binding [9] was “no binding (tested: 0.005-3 mg/ml)”, the binding [10] was “no binding (tested: >1 mg/ml)” and the binding [11] was “no binding (tested: >5 mg/ml)”.

B9: SYCE2-TEX12 full-length LFIL (TEX12 L110E F114E I117E L121E) 2:2 complex (complex, UniProt Q6PIF2 1-218; Q9BXU0 1-123)
chain 1: B6 chain 1
chain 2: B6 chain 2 with L110E, F114E, I117E, L121E
For B9, the binding [12] was “no binding (tested: 0.005-3 mg/ml)” and the binding [13] was “no binding (tested: >1 mg/ml)”.

B10: SYCE2-TEX12 core ΔS2C 2:2 complex (complex, UniProt Q6PIF2 57-154; Q9BXU0 49-123)
chain 1: T2 sequence (looked up)
chain 2: B2 chain
In the case of B10, the binding [14] is reported as “no binding (tested: >1 mg/ml)”.

B11: SYCE2-TEX12 core V149E V153E V156E L160E 2:2 complex (complex, UniProt Q6PIF2 57-165; Q9BXU0 49-123)
chain 1: T1 sequence (looked up) with V93E, V97E, V100E, L104E
chain 2: B2 chain
B11 was tested, and the binding [15] was “no binding (tested: >1 mg/ml)”.

B12: SYCE2-TEX12 core ΔS2C MBP-fusion 2:2 complex (complex, UniProt Q6PIF2 57-154; Q9BXU0 49-123)
chain 1: T2 sequence (looked up)
chain 2: B2 chain
B12 was tested, and the binding [16] was “no binding (tested: >1 mg/ml)”.
